# Data as given in the BET-seq Pho4 binding data (Le et al. 2018).
# The list shows a part of the results. Values were computed here from the reads of four pooled replicates and scatter widely.
# Biological target: T1, Pho4 (S. cerevisiae) (UniProt P07270)
# T1 sequence: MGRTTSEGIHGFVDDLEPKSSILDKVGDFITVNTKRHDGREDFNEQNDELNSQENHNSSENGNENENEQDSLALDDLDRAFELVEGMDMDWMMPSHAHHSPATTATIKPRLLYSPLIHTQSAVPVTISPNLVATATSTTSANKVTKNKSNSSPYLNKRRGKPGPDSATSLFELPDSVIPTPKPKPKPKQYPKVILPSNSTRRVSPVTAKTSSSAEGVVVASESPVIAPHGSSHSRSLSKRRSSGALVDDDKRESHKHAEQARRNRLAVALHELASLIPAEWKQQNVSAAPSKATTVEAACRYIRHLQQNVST
# Test: relative binding free energy (BET-seq); higher = weaker binding
# Conditions: reference: library average
row,Sequence,relative binding free energy
1,ATGTACACGTGAATAT,0.28 kcal/mol
2,TAGAGCACGTGAGCGT,0.15 kcal/mol
3,TGTAGCACGTGCTCTG,-0.02 kcal/mol
4,CTTTGCACGTGTAAAT,0.12 kcal/mol
5,ATATTCACGTGGTTAC,0.23 kcal/mol
6,GGTTTCACGTGTTAAC,0.35 kcal/mol
7,CTTGGCACGTGACGTG,0.02 kcal/mol
8,GGCTTCACGTGTTTTG,0.4 kcal/mol
9,GTGTACACGTGGAGTA,0.09 kcal/mol
10,ATTTTCACGTGACATG,0.2 kcal/mol
11,GTATCCACGTGTGGGC,0.23 kcal/mol
12,TCTTGCACGTGTTAGG,0.01 kcal/mol
13,TGAGGCACGTGGATAT,-0.16 kcal/mol
14,GTAGACACGTGGATAG,0.09 kcal/mol
15,GTAAGCACGTGAATAG,0.37 kcal/mol
16,GTTGTCACGTGAATGT,0.25 kcal/mol
17,TGGAGCACGTGGCATA,-0.14 kcal/mol
18,GACGGCACGTGTATTG,0.09 kcal/mol
19,AGGGTCACGTGACTTG,0.19 kcal/mol
20,CGTGACACGTGTGTGG,-0.02 kcal/mol
21,GGTCGCACGTGTGGGT,0.05 kcal/mol

row,Sequence,relative binding free energy
1,CTGGTCACGTGACTTT,0.27 kcal/mol
2,CGTGGCACGTGCGTGT,-0.17 kcal/mol
3,GAATTCACGTGGTAAG,0.36 kcal/mol
4,GGGATCACGTGGTTGG,0.22 kcal/mol
5,GCGACCACGTGGGTGG,-0.12 kcal/mol
6,GGTGACACGTGGTACA,0.12 kcal/mol
7,GTGGTCACGTGAATTT,0.51 kcal/mol
8,ATGGGCACGTGCGGTT,-0.15 kcal/mol
9,TGAGTCACGTGTTTTA,0.09 kcal/mol
10,TTGTCCACGTGTGGTC,0.15 kcal/mol
11,AGCGTCACGTGGGTGA,-0.09 kcal/mol
12,GATGGCACGTGAACGG,0.24 kcal/mol
13,TGTTTCACGTGATTGG,0.39 kcal/mol
14,AGTTTCACGTGGGCAT,0.14 kcal/mol
15,CGGATCACGTGGTGAT,0.13 kcal/mol
16,GGGTTCACGTGAGGAA,0.49 kcal/mol
17,TTAGTCACGTGTGGGT,0.2 kcal/mol
18,TGCGGCACGTGTAAAA,0.16 kcal/mol
19,GTAAGCACGTGGGTTC,-0.07 kcal/mol
20,TAGTTCACGTGCTTGA,0.38 kcal/mol
21,GGTGCCACGTGTGGCT,-0.07 kcal/mol

row,Sequence,relative binding free energy
1,TTAGACACGTGGCGTT,0.01 kcal/mol
2,GGAGGCACGTGCTGAT,-0.08 kcal/mol
3,GTAAGCACGTGTGATT,0.05 kcal/mol
4,CGAATCACGTGGTTTG,0.17 kcal/mol
5,AGGTGCACGTGTGAGA,0.04 kcal/mol
6,TGTGTCACGTGTAGAC,0.03 kcal/mol
7,TGAGTCACGTGAAGGT,0.42 kcal/mol
8,GTTCTCACGTGTATGG,0.16 kcal/mol
9,TGTCTCACGTGCGTGG,0.06 kcal/mol
10,AATTTCACGTGCTTTA,0.25 kcal/mol
11,TAATGCACGTGTAGAG,-0.13 kcal/mol
12,AAGATCACGTGGTCGT,0.03 kcal/mol
13,GTATTCACGTGCAGTA,0.26 kcal/mol
14,GATGCCACGTGAGGTT,0.2 kcal/mol
15,ATGAACACGTGTTGTG,-0.15 kcal/mol
16,AATCGCACGTGGGGGG,-0.14 kcal/mol
17,GAGGGCACGTGTTATA,-0.06 kcal/mol
18,TAGTGCACGTGGTGGT,-0.11 kcal/mol
19,TATAGCACGTGCGGTG,-0.25 kcal/mol
20,AACGCCACGTGGTGTG,-0.13 kcal/mol
21,AATATCACGTGCGGTA,0.14 kcal/mol
